A lower IC50 marks a more sensitive line; a fit beyond the top or the lowest dose is shown as a bound at that dose. AUC is the area under the same curve over the 256-fold range up to the top dose, as a fraction: 1 means no effect, lower means more sensitive.
Compound: Cn1c(=O)n(-c2ccc(C(C)(C)C#N)cc2)c2c3cc(-c4cnc5ccccc5c4)ccc3ncc21 [NVP-BEZ235]
Assay: Viability of human cancer cell lines after 72 h of drug (GDSC screen)
Method: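 Human cancer cell lines in 384-well plates, medium with 10% serum, drug for 72 h over a 256-fold dose range (nine 2-fold or five 4-fold steps up to the top dose). Adherent lines were fixed and stained with the nucleic acid dye Syto60, suspension lines read with resazurin; signal relative to control wells, capped at 0 and 100%. One two-parameter sigmoid per drug and line, fitted in a mixed model over all curves with the slope shared within a line.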

What does the source list for “MDA-MB-361 (breast, adherent, top dose 0.25 µM)”?
AUC: 0.721; IC50: 65.8 nM

“MDA-MB-415 (breast, adherent, top dose 0.25 µM)” was tested. Which AUC did it give?
Its AUC is 0.749.

And the IC50?
Its IC50 is 106 nM.

What does the source list for “MDA-MB-436 (breast, adherent, top dose 0.25 µM)”?
AUC: 0.734; IC50: 88.1 nM

With “MDA-MB-453 (breast, adherent, top dose 0.25 µM)” as the cell line, how does the AUC read?
The AUC was 0.938.

And the IC50?
The IC50 was over 250 nM.

With “MDA-MB-468 (breast, adherent, top dose 0.25 µM)” as the cell line, how does the AUC read?
The AUC was 0.768.

What about the IC50 of the same cell line?
The IC50 was 90.3 nM.

What does the source list for “MDST8 (large intestine, adherent, top dose 0.25 µM)”?
AUC: 0.655; IC50: 41.9 nM

“ME-1 (acute myeloid leukaemia, suspension, top dose 0.25 µM)” was tested. Which AUC did it give?
Its AUC is 0.926.

What about the IC50 of the same cell line?
The IC50 was over 250 nM.

With “ME-180 (cervix, adherent, top dose 0.25 µM)” as the cell line, how does the AUC read?
Its AUC is 0.67.

What about the IC50 of the same cell line?
The IC50 was 47.4 nM.

With “MEG-01 (chronic myeloid leukaemia, suspension, top dose 0.25 µM)” as the cell line, how does the AUC read?
The AUC was 0.787.

What about the IC50 of the same cell line?
Its IC50 is 102 nM.

What does the source list for “MEL-HO (melanoma, adherent, top dose 0.25 µM)”?
AUC: 0.57; IC50: 24.3 nM

How did the AUC turn out when “MEL-JUSO (melanoma, adherent, top dose 0.25 µM)” was run?
The AUC was 0.737.

And the IC50?
The IC50 was 81.2 nM.

Which results are given for “MES-SA (uterus, adherent, top dose 0.25 µM)”?
AUC: 0.682; IC50: 46.1 nM

Which results are given for “MFE-280 (endometrium, adherent, top dose 0.25 µM)”?
AUC: 0.88; IC50: > 250 nM

“MFE-296 (endometrium, adherent, top dose 0.25 µM)” was tested. Which AUC did it give?
The AUC was 0.593.

What about the IC50 of the same cell line?
The IC50 was 28.7 nM.

Which results are given for “MFE-319 (endometrium, adherent, top dose 2 µM)”?
AUC: 0.081; IC50: < 7.81 nM

With “MFH-ino (soft tissue, adherent, top dose 0.25 µM)” as the cell line, how does the AUC read?
Its AUC is 0.486.

And the IC50?
Its IC50 is 14.2 nM.

With “MFM-223 (breast, adherent, top dose 0.25 µM)” as the cell line, how does the AUC read?
The AUC was 0.788.

What about the IC50 of the same cell line?
The IC50 was 108 nM.

How did the AUC turn out when “MG-63 (osteosarcoma, adherent, top dose 0.25 µM)” was run?
Its AUC is 0.49.

And the IC50?
The IC50 was 14.6 nM.

For “MHH-CALL-2 (B-cell leukaemia, suspension, top dose 0.25 µM)”, which AUC is on record?
The AUC was 0.785.

What about the IC50 of the same cell line?
Its IC50 is 78.6 nM.

What does the source list for “MHH-ES-1 (Ewing sarcoma, adherent, top dose 0.25 µM)”?
AUC: 0.681; IC50: 49.6 nM

With “MHH-NB-11 (neuroblastoma, adherent, top dose 0.25 µM)” as the cell line, how does the AUC read?
Its AUC is 0.902.

What about the IC50 of the same cell line?
The IC50 was over 250 nM.

What does the source list for “MHH-PREB-1 (B-cell leukaemia, suspension, top dose 0.25 µM)”?
AUC: 0.476; IC50: 13.5 nM

What does the source list for “MIA-PaCa-2 (pancreas, adherent, top dose 0.25 µM)”?
AUC: 0.638; IC50: 39.1 nM

How did the AUC turn out when MKN1 (stomach, adherent, top dose 2 µM) was run?
The AUC was 0.178.

And the IC50?
The IC50 was 12.5 nM.

Which AUC does the source give for “MKN7 (stomach, adherent, top dose 0.25 µM)” here?
The AUC was 0.761.

And the IC50?
The IC50 was 119 nM.

“MKN28 (stomach, adherent, top dose 0.25 µM)” was tested. Which AUC did it give?
The AUC was 0.838.

What about the IC50 of the same cell line?
Its IC50 is 174 nM.

Which AUC does the source give for “ML-2 (acute myeloid leukaemia, suspension, top dose 0.25 µM)” here?
Its AUC is 0.868.

What about the IC50 of the same cell line?
Its IC50 is 186 nM.

“MLMA (hairy cell leukaemia, semi-adherent, top dose 0.25 µM)” was tested. Which AUC did it give?
The AUC was 0.733.

What about the IC50 of the same cell line?
Its IC50 is 72.8 nM.

What does the source list for “MM1S (myeloma, suspension, top dose 0.25 µM)”?
AUC: 0.511; IC50: 16.7 nM

Which results are given for “MN-60 (B-cell leukaemia, suspension, top dose 0.25 µM)”?
AUC: 0.799; IC50: 126 nM

For “MOG-G-CCM (glioma, adherent, top dose 0.25 µM)”, which AUC is on record?
Its AUC is 0.713.

And the IC50?
The IC50 was 70 nM.

Which results are given for “MOG-G-UVW (glioma, adherent, top dose 0.25 µM)”?
AUC: 0.518; IC50: 17.4 nM

For “MOLM-13 (acute myeloid leukaemia, suspension, top dose 0.25 µM)”, which AUC is on record?
The AUC was 0.658.

What about the IC50 of the same cell line?
The IC50 was 41.7 nM.

“MOLM-16 (acute myeloid leukaemia, suspension, top dose 0.25 µM)” was tested. Which AUC did it give?
Its AUC is 0.644.

And the IC50?
The IC50 was 37.1 nM.

Which results are given for “MOLP-8 (myeloma, suspension, top dose 0.25 µM)”?
AUC: 0.672; IC50: 46 nM

Which AUC does the source give for “MOLT-4 (lymphoblastic leukaemia, suspension, top dose 0.25 µM)” here?
The AUC was 0.56.

And the IC50?
Its IC50 is 22 nM.

With “MOLT-13 (T-cell lymphoblastic leukaemia, suspension, top dose 0.25 µM)” as the cell line, how does the AUC read?
The AUC was 0.81.

For “MOLT-16 (T-cell lymphoblastic leukaemia, suspension, top dose 0.25 µM)”, which AUC is on record?
Its AUC is 0.539.

And the IC50?
Its IC50 is 19.5 nM.

For “MONO-MAC-6 (acute myeloid leukaemia, suspension, top dose 0.25 µM)”, which AUC is on record?
The AUC was 0.733.

What about the IC50 of the same cell line?
Its IC50 is 75.5 nM.

Which AUC does the source give for “MPP-89 (mesothelioma, adherent, top dose 0.25 µM)” here?
The AUC was 0.601.

And the IC50?
Its IC50 is 32.1 nM.

With “MRK-nu-1 (breast, suspension, top dose 0.25 µM)” as the cell line, how does the AUC read?
The AUC was 0.788.

What about the IC50 of the same cell line?
Its IC50 is 99.9 nM.

Which AUC does the source give for “MS751 (cervix, adherent, top dose 0.25 µM)” here?
The AUC was 0.882.

What about the IC50 of the same cell line?
Its IC50 is 229 nM.

For “MS-1 (small cell lung carcinoma, suspension, top dose 0.25 µM)”, which AUC is on record?
Its AUC is 0.845.

What about the IC50 of the same cell line?
The IC50 was 153 nM.

Which results are given for “MSTO-211H (mesothelioma, adherent, top dose 0.25 µM)”?
AUC: 0.7; IC50: 53.5 nM

Which results are given for “MV-4-11 (leukaemia, suspension, top dose 0.25 µM)”?
AUC: 0.62; IC50: 31.3 nM

How did the AUC turn out when “MY-M12 (leukaemia, suspension, top dose 0.25 µM)” was run?
Its AUC is 0.465.

And the IC50?
The IC50 was 12.4 nM.

“MZ1-PC (pancreas, adherent, top dose 0.25 µM)” was tested. Which AUC did it give?
Its AUC is 0.85.

And the IC50?
The IC50 was over 250 nM.

Which AUC does the source give for “MZ2-MEL (melanoma, adherent, top dose 0.25 µM)” here?
The AUC was 0.559.

And the IC50?
Its IC50 is 23.3 nM.

For “MZ7-mel (melanoma, adherent, top dose 0.25 µM)”, which AUC is on record?
Its AUC is 0.89.

And the IC50?
Its IC50 is over 250 nM.

What does the source list for “Mo-T (hairy cell leukaemia, suspension, top dose 0.25 µM)”?
AUC: 0.732; IC50: 72.9 nM

Which AUC does the source give for “NALM-6 (B-cell leukaemia, suspension, top dose 0.25 µM)” here?
The AUC was 0.679.

What about the IC50 of the same cell line?
Its IC50 is 45 nM.

Which AUC does the source give for “NAMALWA (Burkitt lymphoma, suspension, top dose 0.25 µM)” here?
Its AUC is 0.645.

What about the IC50 of the same cell line?
The IC50 was 36.7 nM.

Which results are given for “NB1 (neuroblastoma, semi-adherent, top dose 0.25 µM)”?
AUC: 0.815; IC50: 155 nM

For “NB5 (neuroblastoma, adherent, top dose 0.25 µM)”, which AUC is on record?
The AUC was 0.638.

What about the IC50 of the same cell line?
Its IC50 is 37.9 nM.

What does the source list for “NB6 (neuroblastoma, adherent, top dose 0.25 µM)”?
AUC: 0.88; IC50: > 250 nM

How did the AUC turn out when “NB7 (neuroblastoma, adherent, top dose 0.25 µM)” was run?
Its AUC is 0.845.

And the IC50?
Its IC50 is 193 nM.

Which AUC does the source give for “NB10 (neuroblastoma, adherent, top dose 0.25 µM)” here?
Its AUC is 0.959.

And the IC50?
The IC50 was over 250 nM.

For “NB12 (neuroblastoma, adherent, top dose 0.25 µM)”, which AUC is on record?
The AUC was 0.898.

And the IC50?
Its IC50 is over 250 nM.

For “NB13 (neuroblastoma, adherent, top dose 0.25 µM)”, which AUC is on record?
The AUC was 0.808.

And the IC50?
Its IC50 is 112 nM.
